Experimental data reported in PubChem BioAssay (NCATS).
Inconclusive means that the source gave no clear call. Such entries were picked first, then a sample of the others. For part of these data: Potencies beside an inconclusive call are fits to weak or partial responses and may not hold up. Active and inactive are the calls of the source. Calls follow the shape of the dose curve; as a rule, active = well fitted curve in the direction sought with a large enough effect; inconclusive = small, poorly fitted or top-dose-only effect, or another doubt; inactive = no such curve, though single readings can be large; an effect the other way counts as inactive or inconclusive.

Assays:
[1] = qHTS of pediatric cancer cell lines to identify multiple opportunities for drug repurposing: Primary screen for TC32 cells (AID 1347089); also: nearly all actives have a fitted effect of over 60% in size
In short: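 TC32 cells, 500-1,000/well in growth medium, compound-treated 48 h at 37 °C; viability from CellTiter-Glo luminescence. Primary screen: MIPE 11-point (0.78 nM–46 µM final), NPC 8-point (0.59 nM–46 µM final); confirmatory at 11-point dilutions.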

[2] = qHTS of pediatric cancer cell lines to identify multiple opportunities for drug repurposing: Primary screen for Rh18 cells (AID 1347102); also: nearly all actives have a fitted effect of over 65% in size
In short: (§1)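 Cells (500-1,000/well) in growth media were settled 5 h at 37 degrees C, then given compounds for 48 h. Viability was read as CellTiter-Glo luminescence. Primary runs used MIPE at 11 points (0.78 nM-46 µM) and NPC at 8 points (0.59 nM-46 µM); follow-ups used 11 points.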

[3] = qHTS of pediatric cancer cell lines to identify multiple opportunities for drug repurposing: Primary screen for control Hh wild type fibroblast cells (AID 1347106); also: nearly all actives have a fitted effect of over 55% in size
In short: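 Viability after 48 h compound treatment at 37C, 500-1,000 cells/well, read as ATP luminescence with CellTiter-Glo. Primary screens used 11-point (MIPE, 0.78 nM-46 µM) or 8-point (NPC, 0.59 nM-46 µM) final concentrations; follow-up screens used 11-point dilutions.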

[4] = Quantitative High-Throughput drug screen in 47 multiple myeloma cell lines against the NCATS MIPE library collection: KMS21BM_JCRB cell viability assay (AID 1918974); conditions: ATP luminescence, 48 h; viability: at 45.8 µM (top of the series)
In short: (§2)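 CellTiter-Glo luminescence (ATP) after 48 h compound exposure, 37C/5% CO2; 500 cells/well; MIPE 4.0 approved/investigational drugs pinned in; DMSO = 100%, media only = 0% viability.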

[5] = Quantitative High-Throughput drug screen in 47 multiple myeloma cell lines against the NCATS MIPE library collection: UTMC2_PLB cell viability assay (AID 1919868); conditions: CellTiter-Glo ATP luminescence, 48 h; viability (% of DMSO control): at 45.8 µM (top of the series); also: nearly all actives have a fitted effect of over 55% in size
In short: (§3)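 MIPE 4.0 approved/investigational drugs; 500 cells/well; 48 h 37 °C humidified 5% CO2; CTG luminescence readout; DMSO = 100%, media = 0% viability.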

[6] = test system: MCC-13; test: qHTS assay to identify novel small-molecules to repurpose for Merkel cell carcinoma treatment (AID 1296009); conditions: MCC and control cell lines, CellTiter-Glo viability, 72 h; series mostly up to 46 µM; also: nearly all actives have a fitted effect of over 60% in size
In short: (§4)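 qHTS format: cells treated with library compounds in DMSO across 8 (NPC) or 11 (MIPE) concentrations. Readout after 72 hr at 37 degree celsius was CellTiter-Glo luminescence.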

[7] = test system: Zika virus NS2B-NS3 protease (unlinked complex); test: Primary screen GU Rhodamine qHTS for Zika virus inhibitors: Unlinked NS2B-NS3 protease assay (AID 1347159); also: nearly all actives have a fitted effect of over 60% in size
In short: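 A qHTS format was used, with compound concentrations ranging up to 114 microM. Each compound was preincubated with 25 nM NS2B-NS3 protease, and the substrate was then added at 1.5 microM. Curves were fitted with a 4-parameter Hill model.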

[8] = test system: Zika virus NS2B-NS3 protease (linked construct); test: Primary screen NINDS Rhodamine qHTS for Zika virus inhibitors (AID 1347160); conditions: activity change, negative = inhibition: at 57.1 µM (top of the series) unless noted; also: nearly all actives have a fitted effect of over 55% in size
In short: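 Kinetic fluorescence (Ex 480 nm, Em 540 nm) over 15 min with 1.5 microM Rhodamine110 peptide and 25 nM linked protease.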

[9] = qHTS of pediatric cancer cell lines to identify multiple opportunities for drug repurposing: Primary screen for A673 cells (AID 1347092); conditions: A673 Ewing sarcoma viability, CellTiter-Glo ATP luminescence, 48 h; activity change, negative = cytotoxic: at 46 µM (top of the series); also: nearly all actives have a fitted effect of over 45% in size
In short: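 A673 cells (500-1,000 cells/well) were treated 48 hours at 37 degrees C with compounds at 11-point (0.78 nM to 46 µM) or 8-point (0.59 nM to 46 µM) dilutions. Viability read by CellTiter-Glo luminescence; concentration-response curves fitted.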

[10] = qHTS of pediatric cancer cell lines to identify multiple opportunities for drug repurposing: Primary screen for SK-N-MC cells (AID 1347093); conditions: SK-N-MC viability, CellTiter-Glo luminescence, 48 h; activity change, negative = cytotoxic: at 46 µM (top of the series)
In short: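 Metabolically active cells were quantified by ATP-dependent luminescence (CellTiter-Glo, 15 min at room temperature) following 48 h treatment. Cells had been plated at 500-1,000 per well and settled for 5 h beforehand.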

[11] = qHTS of pediatric cancer cell lines to identify multiple opportunities for drug repurposing: Primary screen for U-2 OS cells (AID 1347096); also: nearly all actives have a fitted effect of over 50% in size
In short: as §1

[12] = Quantitative High-Throughput drug screen in 47 multiple myeloma cell lines against the NCATS MIPE library collection: KHM11_PLB cell viability assay (AID 1918962); conditions: KHM11 myeloma cell viability, CellTiter-Glo ATP luminescence, 48 h; viability, % of DMSO control: at 45.8 µM (top of the series); also: nearly all actives have a fitted effect of over 35% in size
In short: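 Viability readout: CellTiter-Glo luminescence following 5 min room-temperature incubation with reagent. Prior exposure: 48 h, 37C, humidified 5% CO2, 500 cells per well.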

[13] = Quantitative High-Throughput drug screen in 47 multiple myeloma cell lines against the NCATS MIPE library collection: JIM1_ECACC cell viability assay (AID 1918964)
In short: as §2

[14] = test system: MKL-1; test: qHTS assay to identify novel small-molecules to repurpose for Merkel cell carcinoma treatment (AID 1296009); conditions: MCC and control cell lines, CellTiter-Glo viability, 72 h; activity change, negative = cytotoxicity: at 46 µM (top of the series); also: nearly all actives have a fitted effect of over 60% in size
In short: as §4

[15] = qHTS of pediatric cancer cell lines to identify multiple opportunities for drug repurposing: Primary screen for MG 63 (6-TG R) cells (AID 1347105); conditions: MG 63 (6-TG R) viability, CellTiter-Glo, 48 h; activity change, negative = cytotoxic: at 46 µM (top of the series); also: nearly all actives have a fitted effect of over 50% in size
In short: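 500-1,000 cells/well; 5 h pre-incubation 37 °C/5% CO2; compound pinned; 48 h; CellTiter-Glo, 15 min RT; luminescence. MIPE 11-pt from 0.78 nM, NPC 8-pt from 0.59 nM final. Bortezomib 2.3 µM final as positive control.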

[16] = Quantitative High-Throughput drug screen in 47 multiple myeloma cell lines against the NCATS MIPE library collection: L363_DSMZ cell viability assay (AID 1918984); conditions: L363 myeloma viability, CellTiter-Glo ATP luminescence, 48 h; viability (% of control): at 45.8 µM (top of the series); also: nearly all actives have a fitted effect of over 40% in size
In short: as §3
Potency is read from the fitted curve at half-maximal effect; tags tell the direction and shape of the fitted curve.

CCc1c2c(nc3ccc(O)cc13)-c1cc3c(c(=O)n1C2)COC(=O)[C@]3(O)CC
inconclusive: Potency [3] 20.9 µM [cytotoxic, partial curve, poor fit] | Potency [4] 33.2 µM [rising, partial curve, poor fit] | viability (% of DMSO control) [5] 6.46% [cytotoxic]
active: Potency [1] 0.0083 µM | Potency [2] 0.105 µM | Potency [6] 0.0296 µM

Cc1onc(C(=O)N2CCN(C(c3ccc(Cl)cc3)c3ccc(Cl)cc3)CC2)c1[N+](=O)[O-]
inconclusive: Potency [7] 50.1 µM [inhibitor, partial curve, poor fit] | Potency [8] 2.51 µM [inhibitor, full curve, poor fit]

Cc1cnn(C)c1C(=O)Nc1cc(Nc2ccc3c(C=Cc4ccccn4)n[nH]c3c2)ccc1F
inconclusive: Potency [1] 29.4 µM [cytotoxic, single point] | Potency [10] 18.7 µM [cytotoxic, partial curve, poor fit] | Potency [11] 14.8 µM [cytotoxic, partial curve] | Potency [2] 20.9 µM [cytotoxic, single point] | Potency [4] 33.2 µM [cytotoxic, partial curve, poor fit] | Potency [6] 16.6 µM [inhibitor, partial curve] | Potency [14] 23.5 µM [inhibitor, single point]
active: Potency [9] 14.8 µM | Potency [12] 18.7 µM | Potency [13] 10.5 µM | Potency [5] 10.5 µM

CCCNC(=O)[C@H]1O[C@H]1C(=O)N[C@H](C(=O)N1CCC[C@@H]1C(=O)OC)C(C)CC (stereo not given in full)
inconclusive: Potency [1] 26.2 µM [cytotoxic, single point] | Potency [11] 18.7 µM [cytotoxic, single point] | Potency [15] 37.2 µM [cytotoxic, single point] | Potency [3] 20.9 µM [cytotoxic, single point] | Potency [13] 5.26 µM [cytotoxic, partial curve, poor fit] | Potency [4] 13.2 µM [rising, partial curve, poor fit] | Potency [5] 33.2 µM [cytotoxic, single point]
active: Potency [9] 2.35 µM | Potency [12] 33.2 µM | Potency [16] 8.33 µM | Potency [14] 5.26 µM
